From PubChem BioAssay AID894 (National Center for Advancing Translational Sciences (NCATS), 2007)
Out of some 150,000 compounds screened, about 6,500 (4.3%) were called active. This list was built around the results that the source calls inconclusive (neither active nor inactive); the mix of calls is not that of the screen. The call rests on the fitted dose curve; in most records, active means well fitted inhibition curve with a large enough effect (not every such curve was filed as active); inconclusive means small, poorly fitted or top-dose-only effect, or another doubt; inactive means no such curve, though single readings can be large or run the other way. Where the call is inconclusive, the potency comes from a doubtful curve fit.

biological target: 15-hydroxyprostaglandin dehydrogenase [NAD(+)] (Homo sapiens) (UniProt P15428); experiment: qHTS Assay for Inhibitors of HPGD (15-Hydroxyprostaglandin Dehydrogenase); conditions: purified HPGD, NADH fluorescence kinetic, PGE2 substrate; activity change, negative = inhibition: active compounds read low
UniProt P15428, sequence (P15428 whole entry, looked up): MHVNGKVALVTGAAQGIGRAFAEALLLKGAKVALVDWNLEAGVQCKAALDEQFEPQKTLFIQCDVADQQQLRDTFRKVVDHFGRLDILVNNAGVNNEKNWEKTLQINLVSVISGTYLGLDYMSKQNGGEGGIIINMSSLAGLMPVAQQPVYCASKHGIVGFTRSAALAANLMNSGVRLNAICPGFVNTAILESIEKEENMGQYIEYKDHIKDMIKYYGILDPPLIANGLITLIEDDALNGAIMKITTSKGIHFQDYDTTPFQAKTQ
Method in brief: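 NADH formation kinetics: reaction with 30 uM PGE2 and 1 mM NAD+ (final), 20 nM enzyme, Tris-HCl pH 8 with Tween 20, after 15 min compound preincubation at room temperature. Fluorescence change, last versus first of five reads.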
On the % scale 0 is the no-effect control and ±100 the full control effect; potency means the concentration at half of the fitted maximal effect; tags describe the fitted curve by direction and shape.

Potency, active:
CCOC(=O)c1cc(-c2nnc(SCC(=O)Nc3ccc(F)cc3)o2)c(C)nc1C 14.1 µM, COc1ccc(/C=N/NC2=NCCCCC2)cc1 12.6 µM, Cc1ccc(-c2nc(N)s[n+]2-c2ccccc2)cc1 2.24 µM, c1ccc(Sc2ncnc3c2oc2ccccc23)cc1 31.6 µM, COc1ccc(CNC(=O)c2cccs2)cc1 14.1 µM, CCN(CC)C(=O)c1ccc(C(=O)c2c(C)cc(C)cc2C)cc1 14.1 µM, Cc1ccc(C(=O)NCc2ccc(Cl)c(Cl)c2)o1 12.6 µM, Cc1ccc(/C=C/C(=O)N2CCN(c3ncccn3)CC2)o1 20 µM

Potency, inconclusive:
Cc1cc(C)n(-c2nc(-n3nc(C)cc3C)c3c4c(sc3n2)COC(C)(C)C4)n1 35.5 µM [inhibitor, partial curve], CCOC(=O)c1cc(C(=O)c2cc(F)ccc2O)coc1=N 28.2 µM [inhibitor, partial curve], CCCOc1ccc(C(=O)N2CCCC2)cc1OC 25.1 µM [inhibitor, partial curve], O=C(NCCN1CCOCC1)c1ccc2c(c1)N(Cc1ccccc1)CCS2 28.2 µM [inhibitor, partial curve], COC(=O)c1c(N)n(-c2ccc(NC(C)=O)cc2)c2nc3ccccc3nc12 31.6 µM [inhibitor, partial curve], CC(=O)N1CCC2(CC1)CN(c1cccc(-c3ccccc3)c1)C2 22.4 µM [inhibitor, partial curve], CCOC(=O)C(C)n1nc(/C=C/c2ccccc2)ccc1=O (stereo unspecified) 31.6 µM [inhibitor, partial curve], CCOC(=O)C1=C(C)NC2=C(C(=O)C(C(=O)OCC)C(c3cccc(OC)c3)C2)C1c1ccccn1 (stereo unspecified) 35.5 µM [inhibitor, single point], Cc1ccc(-c2nc(SCC(N)=O)c(C#N)c3c2CCCC3)cc1 39.8 µM [inhibitor, single point], N#Cc1nc(-c2ccccc2F)oc1NC1CCCCC1 31.6 µM [inhibitor, partial curve], c1cncc(-c2noc(-c3cccc4ccccc34)n2)c1 22.4 µM [inhibitor, partial curve], COC(=O)c1ccc(C(=O)OC)c(NC(=O)CSCc2ccc(Br)cc2)c1 31.6 µM [inhibitor, partial curve], CC(Nc1n[nH]c(=S)[nH]c1=O)C(=O)OCc1ccccc1 (stereo unspecified) 31.6 µM [inhibitor, single point], CC1=C(C(=O)N2CCOCC2)C(c2ccccc2F)C2=C(CCCC2=O)N1 (stereo unspecified) 31.6 µM [inhibitor, single point], O=C(Cn1cc(C(F)(F)F)cc(Cl)c1=O)Nc1cccc(Cl)c1 31.6 µM [inhibitor, partial curve], Cc1ccc(CNc2oc(-c3cccs3)nc2C#N)cc1 35.5 µM [inhibitor, partial curve], Cc1nnc(-c2cnn(-c3ccccc3)c2N)n1Cc1ccc(F)cc1 31.6 µM [inhibitor, single point], N=C(N)c1ccc(/C=C\c2ccc(C(=N)N)cc2)cc1 3.55 µM [inhibitor, partial curve], O=C(COC(=O)/C=C/c1nc2ccccc2s1)Nc1ccccc1Oc1ccccc1 31.6 µM [inhibitor, single point], C=CCn1c(=O)c(C(=O)Nc2ccccc2C(=O)OCC)c(O)c2ccccc21 35.5 µM [inhibitor, single point], COCCn1c(SC(C)C(=O)Nc2ccc3c(c2)OCCO3)nc2ccccc2c1=O (stereo unspecified) 35.5 µM [inhibitor, partial curve], COc1ccc(CN=Cc2[nH]c3ccc(Br)c(Cl)c3c2O)cc1 39.8 µM [inhibitor, partial curve, poor fit], [O-][n+]1c(CN2CCCCC2)nc2cccc3c2c1-c1ccccc1-3 0.891 µM [inhibitor, partial curve, poor fit], O=C(/C=C/c1c(F)cccc1Cl)Nc1ccncc1 15.8 µM [inhibitor, partial curve, poor fit], COc1cccc(C2C(C(=O)Nc3nc4ccccc4s3)=C(C)NC3=C2C(=O)CC(C)(C)C3)c1OC (stereo unspecified) 3.55 µM [inhibitor, partial curve]

Activity change, negative = inhibition, inactive:
CCc1cc(=O)oc2cc(OC(C)C(=O)O)c(Cl)cc12 (stereo unspecified) -7.1%, O=C(O)CCN1Cc2ccccc2C1=O -0.901%, CCc1c(C(=O)Nc2ccc(S(=O)(=O)N3CCOCC3)cc2)csc1C -15%, O=C(NNS(=O)(=O)c1ccc(F)cc1F)C1Cc2c(ccc3ccccc23)O1 (stereo unspecified) 3.28%, Cc1cc(C)nc(NC(=O)CSc2ccccn2)n1 1.7%, O=C(CNC(=O)c1ccco1)OCC(=O)c1cccc2ccccc12 -17.5%, Cc1ccc(C(=O)N2CCN(C(=O)N3CCOCC3)CC2)cc1 3.86%, CNC(=S)N1N=C(c2ccc(OC)cc2)CC1c1ccc(N(C)C)cc1 (stereo unspecified) -15.4%, O=C(O)C(=O)/C=C(\O)c1ccc(Br)cc1 -7.03%, Cc1cc(NC(=O)CN2CCN(c3ccc(O)cc3)CC2)no1 -11%, COC(=O)c1ccc(CSc2n[nH]c(C)n2)o1 -7.88%, COCCN=C1OC(=O)N2C(=O)C3=C4C(C[C@H]5C(=O)N(c6ccccc6)C(=O)[C@H]5[C@H]4[C@@]12Cc1ccccc1)[C@H]1C(=O)N(c2ccccc2)C(=O)[C@H]1[C@H]3C (stereo partly specified) -11.2%, Cc1cccc(C(=O)NNC(=O)c2ccccc2)c1 1.46%
